{"source": "ChEMBL document CHEMBL4888484", "about": "“Replenishing the malaria drug discovery pipeline: Screening and hit evaluation of the MMV Hit Generation Library 1 (HGL1) against asexual blood stage Plasmodium falciparum ,using a nano luciferase reporter read-out” (2022)", "note": "About 540 (0.36%) of roughly 150,000 compounds showed an effect of 50% or more. The list shows a part of the results."}
{"tested_on": "Plasmodium falciparum", "assay": "Primary screen in NF54 nanoGlo assay, in single point, at 2uM, 72h; a lower Z score goes with more inhibition", "format": "functional, Erythrocyte", "conditions": "timepoint 72 hour", "units": {"% Inhibition": "%"}}
{"molecule": "O=C(Cn1c(-c2nnco2)cc2ccccc21)NC1CCCC1", "% Inhibition": 0, "Z score": -0.04}
{"molecule": "N[C@H]1CC[C@@H](n2cc(-c3ncnn3-c3ccc(F)cc3F)nn2)CC1", "% Inhibition": 3, "Z score": -0.63}
{"molecule": "O=C(O)[C@@H]1Cc2nc[nH]c2CN1Cc1ccc2cccc(Cl)c2n1", "% Inhibition": -4, "Z score": 0.69}
{"molecule": "Cc1cc(C)cc(NC(=O)NC(C)(C)C)c1", "% Inhibition": -1, "Z score": 0.18}
{"molecule": "CCCN(Cc1cnn(C)c1)C(=O)NCc1csc(C(C)(C)C)n1", "% Inhibition": -9, "Z score": 1.3}
{"molecule": "COc1ccc(-c2c[nH]c([C@@H]3COCCN3C3CCC3)n2)cc1", "% Inhibition": 10, "Z score": -1.12}
{"molecule": "COc1cccc(NC(=O)N2CCc3nc(N4CCN(C)CC4)nc(Oc4cccc(OC)c4)c3C2)c1", "% Inhibition": 4, "Z score": -0.79}
{"molecule": "Nc1ccc(N(c2ccccc2)c2ccc(N)cc2)cc1", "% Inhibition": 0, "Z score": -0.03}
{"molecule": "CN(Cc1ccc2c(c1)OCO2)C(=O)c1cc2c(s1)CCCCCC2", "% Inhibition": -5, "Z score": 0.66}
{"molecule": "NC(=O)c1ccc(N2CCc3ccccc3CC2)nn1", "% Inhibition": -14, "Z score": 1.6}
{"molecule": "COC1CCC(C)(CNC(=O)N2CCC[C@H](OC)CC2)CC1", "note": "(stereo partly drawn)", "% Inhibition": 7, "Z score": -1.33}
{"molecule": "Cc1c(C)n(C[C@@H](O)CNC2CCCC2)c2c(Cl)cccc12", "% Inhibition": 48, "Z score": -6.21}
{"molecule": "CC(C)c1nnc(CN=C(N)N2CCC[C@H](C)C2)s1", "% Inhibition": 2, "Z score": -0.32}
{"molecule": "Cc1nnsc1CN(C)Cc1cc(Cl)ccc1OCC(=O)O", "% Inhibition": -4, "Z score": 0.61}
{"molecule": "CCc1ccc(C(=O)Nc2nnc([C@H]3CC(=O)N(c4ccc(OC(F)(F)F)cc4)C3)o2)cc1", "% Inhibition": -19, "Z score": 3.66}
{"molecule": "CC1(C)[C@H](Cc2cc(-c3ccccc3)on2)C[C@@H]1NS(=O)(=O)c1ccccc1", "% Inhibition": 3, "Z score": -0.49}
{"molecule": "c1ccc([C@@H]2CN(c3ccc4nccnc4n3)CCO2)cc1", "% Inhibition": 8, "Z score": -0.73}
{"molecule": "CN=C(NCc1noc(C)n1)N[C@@H](C)c1cccc(-n2cccn2)c1", "% Inhibition": -2, "Z score": 0.35}
{"molecule": "CC1CCNC(=O)C1NC(=O)NCCc1ccsc1", "note": "(stereo not drawn)", "% Inhibition": -13, "Z score": 1.67}
{"molecule": "O=C(C1CCCC1)N1CCc2nn(Cc3ccccc3)c(=O)n2CC1", "% Inhibition": -14, "Z score": 1.69}
{"molecule": "Cc1ccc2oc(CNc3nnc(C)n3C)cc2c1", "% Inhibition": 7, "Z score": -1.06}
{"molecule": "COc1cc(C(=O)NC2(c3ccccc3)CCCC2)sc1S(N)(=O)=O", "% Inhibition": -13, "Z score": 1.81}
{"molecule": "CC(C)c1nccc(-c2nccn2[C@H]2CC(=O)N(Cc3ccccc3)C2)n1", "% Inhibition": -8, "Z score": 0.89}
{"molecule": "CN(C)CCO[C@H]1CCOC[C@H]1NC(=O)c1cccc(C(F)(F)F)c1", "% Inhibition": -5, "Z score": 0.79}
{"molecule": "CCOc1ccc(-c2cn(C3CN(C(=O)[C@H]4CCC(=O)N4)C3)nn2)cc1", "% Inhibition": -14, "Z score": 1.24}
{"molecule": "Cc1cc(C(F)(F)F)c(N2C[C@@H]3C(=O)NC(=O)[C@@H]3C2)nn1", "% Inhibition": -16, "Z score": 2.99}
{"molecule": "Cc1cnccc1CC(=O)N(C)CC(=O)Nc1cccc(Cl)c1", "% Inhibition": -2, "Z score": 0.29}
{"molecule": "O=C(Cc1cn(Cc2ccc(F)cc2)c2ccccc12)N1CCCc2ccccc21", "% Inhibition": -4, "Z score": 0.76}
{"molecule": "CO[C@H](C(=O)Nc1sccc1S(C)(=O)=O)C1CC1", "% Inhibition": 24, "Z score": -2.7}
{"molecule": "CCOc1cc2c(cc1CN1CCc3[nH]cnc3[C@@H]1C(=O)O)CCC2", "% Inhibition": -12, "Z score": 1.53}
{"molecule": "C[C@H](O)c1ccn(Cc2nnnn2-c2ccccc2)n1", "% Inhibition": -5, "Z score": 0.78}
{"molecule": "COc1ccc(-c2noc(CCCC(=O)Nc3ccc(S(=O)(=O)N4CCC(C)CC4)cc3)n2)cc1", "% Inhibition": -26, "Z score": 2.3}
{"molecule": "CC(=O)N1CC(C(=O)NCc2cccnc2)CCC1c1cccc(C(F)(F)F)c1", "note": "(stereo not drawn)", "% Inhibition": -9, "Z score": 0.99}
{"molecule": "CC[C@H](C)NC(=O)Cn1c(=O)ccc2cc(S(=O)(=O)N3CCC(C)CC3)ccc21", "% Inhibition": -4, "Z score": 0.54}
{"molecule": "COCc1noc(CN2CC(=O)N(c3cccc(Cl)c3)C[C@@H]2C)n1", "% Inhibition": 7, "Z score": -0.9}
{"molecule": "CN1CCN(C(=O)c2cncc(-c3cccc4ccccc34)n2)CC1", "% Inhibition": -3, "Z score": 0.51}
{"molecule": "Cc1ccc(C)c(Cn2c(C(=O)NCCc3ccccn3)cc3cc(NC(=O)COc4ccc(Cl)cc4)ccc32)c1", "% Inhibition": 30, "Z score": -3.61}
{"molecule": "O=C1C[C@H](c2nc(C3CC3)no2)CN1c1ccccc1", "% Inhibition": -1, "Z score": 0.11}
{"molecule": "CC(=O)Nc1c(-c2ccccn2)nsc1C(=O)NCc1ccccc1C", "% Inhibition": -9, "Z score": 0.86}
{"molecule": "COc1ccc(C)cc1S(=O)(=O)N1CCCN(C2CCC2)CC1", "% Inhibition": -5, "Z score": 0.83}
{"molecule": "Cc1ccccc1-c1nnc2c3ccc(Cl)cc3nc(N3CCN(C(=O)C(C)C)[C@@H](C)C3)n12", "% Inhibition": 8, "Z score": -1.22}
{"molecule": "COc1cccc(C(=O)[C@H]2CCCN(C(=O)c3cc[n+]([O-])cc3)C2)c1", "% Inhibition": 1, "Z score": -0.09}
{"molecule": "O=C(c1ccc2c(c1)OCCO2)N1CCc2ccccc21", "% Inhibition": -12, "Z score": 1.63}
{"molecule": "CCOc1ccc(S(=O)(=O)c2c(C(=O)N3CCCCC3)cnc3ccc(F)cc23)cc1", "% Inhibition": -6, "Z score": 0.59}
{"molecule": "NC(=O)COC(=O)[C@H](NCC(F)(F)F)c1cc(Cl)cc(Cl)c1", "% Inhibition": -14, "Z score": 1.89}
{"molecule": "O=C(N[C@H]1CCN(Cc2ccccn2)C[C@@H]1O)c1ccc(Cl)o1", "% Inhibition": -8, "Z score": 0.83}
{"molecule": "CC(C)n1cnnc1[C@H](C)NC(=O)CN1CCOCC1", "% Inhibition": -1, "Z score": 0.11}
{"molecule": "O=C(O)c1cc(N2CCC[C@H](c3nccn3CC3CC3)C2)nc2ccccc12", "% Inhibition": -15, "Z score": 1.98}
{"molecule": "CC(C)NC(=O)N(CC(=O)Nc1nc(-c2ccccc2)cn1-c1ccc(C(C)C)cc1)CC1CC1", "% Inhibition": -13, "Z score": 1.84}
{"molecule": "Cc1ncc(CN(C)c2ccsc2)o1", "% Inhibition": 2, "Z score": -0.18}
{"molecule": "Cn1nc(C2CC2)cc1C(=O)N[C@H]1CCO[C@H](c2cccnc2)C1", "% Inhibition": -7, "Z score": 0.92}
{"molecule": "Cc1cc(C)c2c(C)c3c(F)c(F)c(F)c(F)c3nc2c1", "% Inhibition": -9, "Z score": 1.27}
{"molecule": "Cc1nc2nc(CN3C[C@@H]4CC[C@H]3CN(c3ncccn3)C4)cc(O)n2n1", "% Inhibition": -12, "Z score": 2.02}
{"molecule": "CN1[C@@H](CCC(=O)NCc2cccs2)CNC(=O)[C@@H]2[C@H]1CCN2Cc1ccc(O)cc1", "% Inhibition": 11, "Z score": -1.42}
{"molecule": "CN1CCCOc2cccc(c2)[C@@H]2N(C(=O)Cn3cnnc3)CC[C@]23C(=O)N(CC1=O)c1ccccc13", "% Inhibition": -3, "Z score": 0.62}
{"molecule": "CCC(CC)NC(=O)Nc1ccc(C)cc1", "% Inhibition": 5, "Z score": -0.91}
{"molecule": "CCc1nc2n(n1)C(c1ccc(N(C)C)cc1)CC(C)N2", "note": "(stereo not drawn)", "% Inhibition": 2, "Z score": -0.24}
{"molecule": "Cc1ccc(C(C)NC(=O)C2COCC(=O)N2Cc2ccccc2)o1", "note": "(stereo not drawn)", "% Inhibition": 7, "Z score": -1.06}
{"molecule": "COc1ccc(-n2nnnc2-n2cccn2)cc1N", "% Inhibition": 2, "Z score": -0.32}
{"molecule": "Cc1ncc(-c2cc(NC(C)C)ccc2C)o1", "% Inhibition": 4, "Z score": -0.43}
{"molecule": "CNC(=O)c1cc(S(=O)(=O)N2CCC3C(CCC(=O)N3C3CC3)C2)cn1C", "note": "(stereo not drawn)", "% Inhibition": -11, "Z score": 1.1}
{"molecule": "O=C(c1ccccc1)N1C(F)(F)C1(C(F)(F)F)C(F)(F)F", "% Inhibition": 1, "Z score": -0.1}
{"molecule": "COc1ccc(Cl)cc1C(CC(C)C)NC(=O)C1CN(C)CCO1", "note": "(stereo not drawn)", "% Inhibition": 5, "Z score": -0.97}
{"molecule": "CCC1CCCCN1Cc1ccc(CNC(=O)C2CCCN(c3ncnc4c3nc3n4CCCCC3)C2)o1", "note": "(stereo not drawn)", "% Inhibition": -1, "Z score": 0.24}
{"molecule": "Cc1nc(C2CN(c3ncnc4c3CCCC4)C2)n[nH]1", "% Inhibition": -5, "Z score": 0.97}
{"molecule": "O=C(NCc1ccc(S(=O)(=O)N2CCCC2)cc1)c1cc[nH]n1", "% Inhibition": 33, "Z score": -4.84}
{"molecule": "O=C(c1ccccc1)N1CCCCCO1", "% Inhibition": 2, "Z score": -0.26}
{"molecule": "C[C@@H]1CC[C@H](CO)N1C(=O)Cn1nc(C(F)(F)F)c2c1CCOC2", "% Inhibition": 12, "Z score": -2.26}
{"molecule": "O=c1[nH]c2ccccc2c2nc(-c3cccc(S(=O)(=O)N4CCCCC4)c3)nn12", "% Inhibition": -7, "Z score": 0.72}
{"molecule": "CC1CCC(N(C)C(=O)[C@@H]2CNCCN2C)CC1", "note": "(stereo partly drawn)", "% Inhibition": -8, "Z score": 0.99}
{"molecule": "Cc1cnc([C@@H](NC2CCN(CC3CC3)CC2)C2CC2)s1", "% Inhibition": 1, "Z score": -0.08}
{"molecule": "COc1ccccc1CC(=O)N1CCNC[C@H]1C(=O)N1CCOCC1", "% Inhibition": -2, "Z score": 0.31}
{"molecule": "CC1CCN(C(=O)N2CCN3C(=O)NCC3C2)C1", "note": "(stereo not drawn)", "% Inhibition": -18, "Z score": 2.19}
{"molecule": "O=C(C1CCCCCC1)N1CC2CCC1C2", "note": "(stereo not drawn)", "% Inhibition": 1, "Z score": -0.17}
{"molecule": "CC(C)n1cc(C(=O)N[C@@H](C)CCc2cccn2C)nn1", "% Inhibition": -10, "Z score": 1.2}
{"molecule": "Cc1cccc(C(=O)NC(C)C(=O)N2CCC(N3CCCC3C(N)=O)CC2)c1", "note": "(stereo not drawn)", "% Inhibition": -5, "Z score": 0.65}
{"molecule": "O=S(=O)(Nc1cc(Br)c(F)cc1F)C1CC1", "% Inhibition": -5, "Z score": 0.78}
{"molecule": "O=C(CCc1nc2ccccc2[nH]1)N1CCCCC[C@@H]1CO", "% Inhibition": 4, "Z score": -0.51}
{"molecule": "OCCOc1nc(OCCO)nc(OCCO)n1", "% Inhibition": -34, "Z score": 4.04}
{"molecule": "O=c1[nH]nc(CCNc2ccccc2)n1-c1ccc2c(c1)OCO2", "% Inhibition": -7, "Z score": 0.67}
{"molecule": "CCCCCNC(=O)c1n[nH]c2c1CN(C(=O)Cc1cccc(Cl)c1)CC2", "% Inhibition": -9, "Z score": 1.06}
{"molecule": "COCCN(C)Cc1nc(-c2ccc(-c3ccccc3)cc2)oc1C", "% Inhibition": 8, "Z score": -1.08}
{"molecule": "Cc1cc(NCCN2CCC[C@H](CO)C2)nc(-c2ccccc2)n1", "% Inhibition": -9, "Z score": 0.87}
{"molecule": "CNc1nc(C(N)=O)c(NC(=O)c2ccc(OC)c(C)c2)s1", "% Inhibition": -3, "Z score": 0.53}
